Substitutions are numbered along the chain they refer to; changes in the protein carry UniProt numbers. Some of the results follow.
T1: RBFOX1 RRM (Homo sapiens, UniProt Q9NWB1 109-208)
T1 sequence: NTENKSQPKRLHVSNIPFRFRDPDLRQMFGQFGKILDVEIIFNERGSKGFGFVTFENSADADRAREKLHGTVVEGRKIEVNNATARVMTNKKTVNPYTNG

B1: GCUAAGC (DNA:RNA)
RNA: GGGAGACCGGAAUUCAGAUUGUCCGCUAAGCUUAAAUCCCGUCGUAGCCACCA
DNA 1: CAATCTGAATTCCGGTCTCCC
DNA 2: TGGTGGCTACGACGGGATT
B2: UGAUUAA (DNA:RNA)
RNA: GGGAGACCGGAAUUCAGAUUGUCCUGAUUAAUUAAAUCCCGUCGUAGCCACCA
DNA 1: CAATCTGAATTCCGGTCTCCC
DNA 2: TGGTGGCTACGACGGGATT
B3: AUAGGUU (DNA:RNA)
RNA: B2 RNA with U25A, G26U, U28G, U29G, A30U, A31U
DNA 1: CAATCTGAATTCCGGTCTCCC
DNA 2: TGGTGGCTACGACGGGATT
B4: UCAUGUA (DNA:RNA)
RNA: B2 RNA with G26C, U29G, A30U
DNA 1: CAATCTGAATTCCGGTCTCCC
DNA 2: TGGTGGCTACGACGGGATT
B5: CCUAAUU (DNA:RNA)
RNA: B1 RNA with G25C, G30U, C31U
DNA 1: CAATCTGAATTCCGGTCTCCC
DNA 2: TGGTGGCTACGACGGGATT
B6: UCCAUCA (DNA:RNA)
RNA: B2 RNA with G26C, A27C, U28A, A30C
DNA 1: CAATCTGAATTCCGGTCTCCC
DNA 2: TGGTGGCTACGACGGGATT
B7: CUAAGUU (DNA:RNA)
RNA: B1 RNA with G25C, C26U, U27A, A29G, G30U, C31U
DNA 1: CAATCTGAATTCCGGTCTCCC
DNA 2: TGGTGGCTACGACGGGATT
B8: UAUUUAC (DNA:RNA)
RNA: B2 RNA with G26A, A27U, A31C
DNA 1: CAATCTGAATTCCGGTCTCCC
DNA 2: TGGTGGCTACGACGGGATT
B9: ACUGCCC (DNA:RNA)
RNA: B1 RNA with G25A, A28G, A29C, G30C
DNA 1: CAATCTGAATTCCGGTCTCCC
DNA 2: TGGTGGCTACGACGGGATT
B10: ACUAGAC (DNA:RNA)
RNA: B1 RNA with G25A, A29G, G30A
DNA 1: CAATCTGAATTCCGGTCTCCC
DNA 2: TGGTGGCTACGACGGGATT
B11: CAGCACC (DNA:RNA)
RNA: B1 RNA with G25C, C26A, U27G, A28C, G30C
DNA 1: CAATCTGAATTCCGGTCTCCC
DNA 2: TGGTGGCTACGACGGGATT
B12: UCAUUUG (DNA:RNA)
RNA: B2 RNA with G26C, A30U, A31G
DNA 1: CAATCTGAATTCCGGTCTCCC
DNA 2: TGGTGGCTACGACGGGATT
B13: CUUAGCA (DNA:RNA)
RNA: B1 RNA with G25C, C26U, A29G, G30C, C31A
DNA 1: CAATCTGAATTCCGGTCTCCC
DNA 2: TGGTGGCTACGACGGGATT
B14: CCUACAU (DNA:RNA)
RNA: B1 RNA with G25C, A29C, G30A, C31U
DNA 1: CAATCTGAATTCCGGTCTCCC
DNA 2: TGGTGGCTACGACGGGATT
B15: AUUACCC (DNA:RNA)
RNA: B1 RNA with G25A, C26U, A29C, G30C
DNA 1: CAATCTGAATTCCGGTCTCCC
DNA 2: TGGTGGCTACGACGGGATT
B16: AAGCGGG (DNA:RNA)
RNA: B1 RNA with G25A, C26A, U27G, A28C, A29G, C31G
DNA 1: CAATCTGAATTCCGGTCTCCC
DNA 2: TGGTGGCTACGACGGGATT
B17: GUUCUAC (DNA:RNA)
RNA: B1 RNA with C26U, A28C, A29U, G30A
DNA 1: CAATCTGAATTCCGGTCTCCC
DNA 2: TGGTGGCTACGACGGGATT
B18: UCCUCAU (DNA:RNA)
RNA: B2 RNA with G26C, A27C, U29C, A31U
DNA 1: CAATCTGAATTCCGGTCTCCC
DNA 2: TGGTGGCTACGACGGGATT
B19: GUUCUUA (DNA:RNA)
RNA: B1 RNA with C26U, A28C, A29U, G30U, C31A
DNA 1: CAATCTGAATTCCGGTCTCCC
DNA 2: TGGTGGCTACGACGGGATT
B20: UUUUCCA (DNA:RNA)
RNA: B2 RNA with G26U, A27U, U29C, A30C
DNA 1: CAATCTGAATTCCGGTCTCCC
DNA 2: TGGTGGCTACGACGGGATT
B21: GAGGUCU (DNA:RNA)
RNA: B1 RNA with C26A, U27G, A28G, A29U, G30C, C31U
DNA 1: CAATCTGAATTCCGGTCTCCC
DNA 2: TGGTGGCTACGACGGGATT
B22: CAUCGCA (DNA:RNA)
RNA: B1 RNA with G25C, C26A, A28C, A29G, G30C, C31A
DNA 1: CAATCTGAATTCCGGTCTCCC
DNA 2: TGGTGGCTACGACGGGATT
B23: CGUACGC (DNA:RNA)
RNA: B1 RNA with G25C, C26G, A29C
DNA 1: CAATCTGAATTCCGGTCTCCC
DNA 2: TGGTGGCTACGACGGGATT
B24: GGCAAUG (DNA:RNA)
RNA: B1 RNA with C26G, U27C, G30U, C31G
DNA 1: CAATCTGAATTCCGGTCTCCC
DNA 2: TGGTGGCTACGACGGGATT
B25: CAACGAA (DNA:RNA)
RNA: B2 RNA with U25C, G26A, U28C, U29G
DNA 1: CAATCTGAATTCCGGTCTCCC
DNA 2: TGGTGGCTACGACGGGATT
B26: UAAGAGA (DNA:RNA)
RNA: B2 RNA with G26A, U28G, U29A, A30G
DNA 1: CAATCTGAATTCCGGTCTCCC
DNA 2: TGGTGGCTACGACGGGATT
B27: GCAGAUG (DNA:RNA)
RNA: B1 RNA with U27A, A28G, G30U, C31G
DNA 1: CAATCTGAATTCCGGTCTCCC
DNA 2: TGGTGGCTACGACGGGATT
B28: CCACGGA (DNA:RNA)
RNA: B1 RNA with G25C, U27A, A28C, A29G, C31A
DNA 1: CAATCTGAATTCCGGTCTCCC
DNA 2: TGGTGGCTACGACGGGATT
B29: ACCAGCG (DNA:RNA)
RNA: B1 RNA with G25A, U27C, A29G, G30C, C31G
DNA 1: CAATCTGAATTCCGGTCTCCC
DNA 2: TGGTGGCTACGACGGGATT
B30: CAAUUAC (DNA:RNA)
RNA: B2 RNA with U25C, G26A, A31C
DNA 1: CAATCTGAATTCCGGTCTCCC
DNA 2: TGGTGGCTACGACGGGATT
B31: GCGUACC (DNA:RNA)
RNA: B1 RNA with U27G, A28U, G30C
DNA 1: CAATCTGAATTCCGGTCTCCC
DNA 2: TGGTGGCTACGACGGGATT

Each binder was assayed against T1, RBFOX1 RRM (assay: EMSA; HiTS-Eq, 1 nM pool, 10 min; buffer printed only for the single-RNA assays: 10 mM Tris pH 7.5, 150 mM NaCl, 3.4 mM EDTA, 0.001% NP-40, 30 C). Settings: tags: His6 N-terminal (pET28a); label: 5' 32P.
Summary of the method: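 A pool of RNA with 7 randomized nucleotides, 5′-radiolabelled and with DNA-annealed flanks, was equilibrated at 1 nM for 10 min in 50 µL with purified RbFox RRM, wild type or mutant, across increasing protein concentrations. Free RNA was separated by 8% native PAGE, excised, reverse-transcribed, barcoded by PCR and sequenced. Relative association constants were obtained from read-count changes of each RNA species versus the control reaction and normalised to the cognate motif.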

Q: With B1 as the binder, how does the binding signal read?
A: Its binding signal is 0.0139 KA relative to UGCAUGU.

Q: B2 was tested. Which binding signal did it give?
A: Its binding signal is 0.00933 KA relative to UGCAUGU.

Q: B3 was tested. Which binding signal did it give?
A: The binding signal was 0.00745 KA relative to UGCAUGU.

Q: With B4 as the binder, how does the binding signal read?
A: The binding signal was 0.00516 KA relative to UGCAUGU.

Q: With B5 as the binder, how does the binding signal read?
A: The binding signal was 0.00209 KA relative to UGCAUGU.

Q: How did the binding signal turn out when B6 was run?
A: The binding signal was 0.00185 KA relative to UGCAUGU.

Q: How did the binding signal turn out when B7 was run?
A: The binding signal was 0.0066 KA relative to UGCAUGU.

Q: For B8, which binding signal is on record?
A: The binding signal was 0.0112 KA relative to UGCAUGU.

Q: How did the binding signal turn out when B9 was run?
A: Its binding signal is 0.00841 KA relative to UGCAUGU.

Q: Which binding signal does the source give for B10 here?
A: Its binding signal is 0.00353 KA relative to UGCAUGU.

Q: For B11, which binding signal is on record?
A: The binding signal was 0.00578 KA relative to UGCAUGU.

Q: How did the binding signal turn out when B12 was run?
A: The binding signal was 0.0136 KA relative to UGCAUGU.

Q: How did the binding signal turn out when B13 was run?
A: The binding signal was 0.00821 KA relative to UGCAUGU.

Q: B14 was tested. Which binding signal did it give?
A: Its binding signal is 0.00644 KA relative to UGCAUGU.

Q: With B15 as the binder, how does the binding signal read?
A: The binding signal was 0.00021 KA relative to UGCAUGU.

Q: Which binding signal does the source give for B16 here?
A: The binding signal was 0.00843 KA relative to UGCAUGU.

Q: How did the binding signal turn out when B17 was run?
A: Its binding signal is 0.00913 KA relative to UGCAUGU.

Q: B18 was tested. Which binding signal did it give?
A: Its binding signal is 0.00357 KA relative to UGCAUGU.

Q: B19 was tested. Which binding signal did it give?
A: The binding signal was 0.00747 KA relative to UGCAUGU.

Q: Which binding signal does the source give for B20 here?
A: Its binding signal is 0.00889 KA relative to UGCAUGU.

Q: B21 was tested. Which binding signal did it give?
A: Its binding signal is 0.0222 KA relative to UGCAUGU.

Q: For B22, which binding signal is on record?
A: Its binding signal is 0.00633 KA relative to UGCAUGU.

Q: How did the binding signal turn out when B23 was run?
A: The binding signal was 0.00961 KA relative to UGCAUGU.

Q: With B24 as the binder, how does the binding signal read?
A: Its binding signal is 0.0118 KA relative to UGCAUGU.

Q: How did the binding signal turn out when B25 was run?
A: Its binding signal is 0.00666 KA relative to UGCAUGU.

Q: B26 was tested. Which binding signal did it give?
A: Its binding signal is 0.00895 KA relative to UGCAUGU.

Q: How did the binding signal turn out when B27 was run?
A: Its binding signal is 0.0112 KA relative to UGCAUGU.

Q: For B28, which binding signal is on record?
A: Its binding signal is 0.0114 KA relative to UGCAUGU.

Q: B29 was tested. Which binding signal did it give?
A: The binding signal was 0.00395 KA relative to UGCAUGU.

Q: Which binding signal does the source give for B30 here?
A: The binding signal was 0.00102 KA relative to UGCAUGU.

Q: How did the binding signal turn out when B31 was run?
A: The binding signal was 0.00754 KA relative to UGCAUGU.

— publication PMC9911399, “Two distinct binding modes provide the RNA-binding protein RbFox with extraordinary sequence specificity”
